Measured values reported in a collection of fitness landscapes (doi:10.1126/science.1257360).
This is one part of the list.

B1: PhoQ; a variant is named by its letters at X, in order, P23837 (parent)
chain: MKKLLRLFFPLSLRVRFLLATAAVVLVLSLAYGMVALIGYSVSFDKTTFRLLRGESNLFYTLAKWENNKLHVELPENIDKQSPTMTLIYDENGQLLWAQRDVPWLMKMIQPDWLKSNGFHEIEADVNDTSLLLSGDHSIQQQLQEVREDDDDAEMTHSVAVNVYPATSRMPKLTIVVVDTIPVELKSSYMVWSWFIYVLSANLLLVIPLLWVAAWWSLRPIEALAKEVRELEEHNRELLNPATTRELTSLVRNLNRLLKSERERYDKYRTTLTDLTHSLKTPLXXLQXXLRSLRSEKMSVSDAEPVMLEQISRISQQIGYYLHRASMRGGTLLSRELHPVAPLLDNLTSALNKVYQRKGVNISLDISPEISFVGEQNDFVEVMGNVLDNACKYCLEFVEISARQTDEHLYIVVEDDGPGIPLSKREVIFDRGQRVDTLRPGQGVGLAVAREITEQYEGKIVAGESMLGGARMEVIFGRQHSAPKDE

Variants of: B1
Assay: enrichment ratio after two sorts for PhoP signalling (ratio (wild type AVST 3.29)); higher = more functional
Details: with PhoP (E. coli)

| Variant | enrichment ratio |
| --- | --- |
| MCMN | ≤ 0.25 |
| YGVR | ≤ 0.25 |
| ENPN | ≤ 0.25 |
| TLWP | ≤ 0.25 |
| IFNR | ≤ 0.25 |
| AFMF | ≤ 0.25 |
| HYIW | ≤ 0.25 |
| GHML | ≤ 0.25 |
| YYYA | ≤ 0.25 |
| VGFM | 4.1 |
| WGFT | ≤ 0.25 |
| HAMR | ≤ 0.25 |
| WWTG | ≤ 0.25 |
| KSGH | ≤ 0.25 |
| TNPP | ≤ 0.25 |
| PCCT | ≤ 0.25 |
| QSPY | ≤ 0.25 |
| RHSV | ≤ 0.25 |
| NWDC | ≤ 0.25 |
| VHAG | ≤ 0.25 |
| NEII | ≤ 0.25 |
| WYVR | ≤ 0.25 |
| DKHT | ≤ 0.25 |
| DKGN | ≤ 0.25 |
| NDPL | ≤ 0.25 |
| GKCH | ≤ 0.25 |

| Variant | enrichment ratio |
| --- | --- |
| SDDM | ≤ 0.25 |
| PCVK | ≤ 0.25 |
| YVMF | ≤ 0.25 |
| WGMI | ≤ 0.25 |
| HFAT | ≤ 0.25 |
| MREV | ≤ 0.25 |
| HAFM | ≤ 0.25 |
| ILNW | ≤ 0.25 |
| SRYS | ≤ 0.25 |
| HQHL | ≤ 0.25 |
| IECE | ≤ 0.25 |
| KARF | ≤ 0.25 |
| IGDC | ≤ 0.25 |
| FSWM | ≤ 0.25 |
| HPSE | ≤ 0.25 |
| DSWL | ≤ 0.25 |
| TVSI | 17.4 |
| NTSD | ≤ 0.25 |
| WAVD | ≤ 0.25 |
| ALAG | 1.23 |
| ELAM | ≤ 0.25 |
| DLAS | ≤ 0.25 |
| NSDC | ≤ 0.25 |
| HQYS | ≤ 0.25 |
| VMCH | ≤ 0.25 |
| SIHT | ≤ 0.25 |

| Variant | enrichment ratio |
| --- | --- |
| MVQF | ≤ 0.25 |
| QFDW | ≤ 0.25 |
| PMKC | ≤ 0.25 |
| DHMQ | ≤ 0.25 |
| YQAV | ≤ 0.25 |
| PTTR | ≤ 0.25 |
| TQAQ | 3.78 |
| GKVM | ≤ 0.25 |
| YWFV | ≤ 0.25 |
| PNNT | ≤ 0.25 |
| HGWW | ≤ 0.25 |
| EQLN | ≤ 0.25 |
| NGFK | ≤ 0.25 |
| YPIW | ≤ 0.25 |
| HCWL | ≤ 0.25 |
| AAWI | ≤ 0.25 |
| WCPQ | ≤ 0.25 |
| NGGM | ≤ 0.25 |
| QAMF | ≤ 0.25 |
| KIPP | ≤ 0.25 |
| IGLC | 0.963 |
| LNHT | ≤ 0.25 |
| SIVF | ≤ 0.25 |
| QAHC | ≤ 0.25 |
| RGPG | ≤ 0.25 |
| VPCT | ≤ 0.25 |

| Variant | enrichment ratio |
| --- | --- |
| NCWK | ≤ 0.25 |
| GPTG | ≤ 0.25 |
| IPRS | ≤ 0.25 |
| RGQG | ≤ 0.25 |
| HHAF | ≤ 0.25 |
| LEVN | ≤ 0.25 |
| WECR | ≤ 0.25 |
| LFYN | ≤ 0.25 |
| KYYH | ≤ 0.25 |
| KPQF | ≤ 0.25 |
| DTCE | ≤ 0.25 |
| NENP | ≤ 0.25 |
| KMKS | ≤ 0.25 |
| KSIM | ≤ 0.25 |
| DIND | ≤ 0.25 |
| RFAM | ≤ 0.25 |
| NYHI | ≤ 0.25 |
| AWPM | ≤ 0.25 |
| VAEQ | ≤ 0.25 |
| NCKS | ≤ 0.25 |
| PSNA | ≤ 0.25 |
| KPSK | ≤ 0.25 |
| AGDR | ≤ 0.25 |
| IPHQ | ≤ 0.25 |
| LHAI | ≤ 0.25 |
| ARAC | ≤ 0.25 |

| Variant | enrichment ratio |
| --- | --- |
| PNCV | ≤ 0.25 |
| FCMS | ≤ 0.25 |
| WLHW | ≤ 0.25 |
| CQNY | 12.1 |
| IWWM | ≤ 0.25 |
| GYYW | ≤ 0.25 |
| HRWH | ≤ 0.25 |
| CCSC | ≤ 0.25 |
| ISYM | ≤ 0.25 |
| HQYY | ≤ 0.25 |
| YCIQ | 0.253 |
| IVFK | ≤ 0.25 |
| YGFW | ≤ 0.25 |
| IDTV | ≤ 0.25 |
| QTHT | ≤ 0.25 |
| NTTC | ≤ 0.25 |
| QLRA | ≤ 0.25 |
| EDNF | ≤ 0.25 |
| GEEL | ≤ 0.25 |
| NWWR | ≤ 0.25 |
| NVWQ | ≤ 0.25 |
| HKKG | ≤ 0.25 |
| YFIL | ≤ 0.25 |
| TYCV | 0.664 |
| WQEI | ≤ 0.25 |
| HRHS | ≤ 0.25 |

| Variant | enrichment ratio |
| --- | --- |
| TEIR | ≤ 0.25 |
| PPFN | ≤ 0.25 |
| AWNQ | ≤ 0.25 |
| FEKP | ≤ 0.25 |
| IKKD | ≤ 0.25 |
| GQRA | ≤ 0.25 |
| DRTW | ≤ 0.25 |
| QYNG | ≤ 0.25 |
| HDRF | ≤ 0.25 |
| EQVT | ≤ 0.25 |
| VVCS | ≤ 0.25 |
| HRPE | ≤ 0.25 |
| KFGG | ≤ 0.25 |
| RYYV | ≤ 0.25 |
| RGDA | ≤ 0.25 |
| SLSL | 10.7 |
| ILAC | ≤ 0.25 |
| FLVA | ≤ 0.25 |
| YGMM | ≤ 0.25 |
| SLWK | ≤ 0.25 |
| PYCM | ≤ 0.25 |
| RWPH | ≤ 0.25 |
| GGRT | ≤ 0.25 |
